In the supplement of paper PMC12297408:
Structures can show the parent of a compound that is named as a salt. Among all 1,300 compounds or so, about 40 (3%) showed activity. Some of the results follow.

System: Plasmodium falciparum NF54/iGP1_RE9H ulg8 stage V gametocytes
Assay: gametocyte viability (luciferase signal relative to DMSO control) (% of DMSO control); higher = less gametocytocidal activity, active = 50 or less
Details: exposure time: 72 h
Summary of the method: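 Gametocyte viability is reported relative to the average of DMSO vehicle wells on the same plate. The assay used day-12 stage V NF54/iGP1_RE9Hulg8 gametocytes at ~2.5% gametocytemia and 3% hematocrit, in 0.5% Albumax II medium, added to 96-well plates of compounds spotted in nanolitre volumes for final 10 µM or 1 µM, one well each. After 72 h at 37 °C, 90 µl was mixed with 10 µl D-luciferin (30 mg/ml), and luminescence was recorded with an IVIS Lumina II.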

SMILES: NC(=O)c1cnccn1 [Pyrazinamide]
- gametocyte viability (concentration: 1 µM): inactive: 89.4
- gametocyte viability (concentration: 10 µM): inactive: 83.6

SMILES: CC(=O)O[C@H]1C(=O)[C@@]2(C)[C@H]([C@H](OC(=O)c3ccccc3)[C@]3(O)C[C@H](OC(=O)[C@H](O)[C@@H](NC(=O)c4ccccc4)c4ccccc4)C(C)=C1C3(C)C)[C@]1(OC(C)=O)CO[C@@H]1C[C@@H]2O [Paclitaxel]
- gametocyte viability (concentration: 1 µM): inactive: 88.3
- gametocyte viability (concentration: 10 µM): inactive: 86.7

SMILES: CCCN(CCC)CCc1cccc2c1CC(=O)N2 [Ropinirole HCl]
- gametocyte viability (concentration: 1 µM): inactive: 96.2
- gametocyte viability (concentration: 10 µM): inactive: 97.1

SMILES: NS(=O)(=O)c1cc2c(cc1C(F)(F)F)NCNS2(=O)=O [Hydroflumethiazide]
- gametocyte viability (concentration: 1 µM): inactive: 91.2
- gametocyte viability (concentration: 10 µM): inactive: 89.9

SMILES: CC(C)NC[C@@H](O)COc1ccc(CC(N)=O)cc1 [(R)-(+)-Atenolol]
- gametocyte viability (concentration: 1 µM): inactive: 85.7
- gametocyte viability (concentration: 10 µM): inactive: 91.9

SMILES: CS(=O)(=O)OCCCCOS(C)(=O)=O [Busulfan]
- gametocyte viability (concentration: 1 µM): inactive: 87.9
- gametocyte viability (concentration: 10 µM): inactive: 82.2

SMILES: Cc1c(NC(=O)c2cccnc2)c(=O)n(-c2ccccc2)n1C [Nifenazone]
- gametocyte viability (concentration: 1 µM): inactive: 85.9
- gametocyte viability (concentration: 10 µM): inactive: 84

SMILES: CC[C@@H]1C(=O)OC[C@@H]1Cc1cncn1C [Pilocarpine nitrate]
- gametocyte viability (concentration: 1 µM): inactive: 98.2
- gametocyte viability (concentration: 10 µM): inactive: 98

SMILES: CCN(CC)CC(=O)Nc1c(C)cccc1C [Lidoca? hydrochloride]
- gametocyte viability (concentration: 1 µM): inactive: 83.6
- gametocyte viability (concentration: 10 µM): inactive: 87.7

SMILES: CC(=O)OCC(=O)[C@@]12OC(C)(C)O[C@@H]1C[C@H]1[C@@H]3C[C@H](F)C4=CC(=O)C=C[C@]4(C)[C@@]3(F)[C@@H](O)C[C@@]12C [Fluocinonide]
- gametocyte viability (concentration: 1 µM): inactive: 80.7
- gametocyte viability (concentration: 10 µM): inactive: 84.4

SMILES: c1ccc2c(CC3=NCCN3)cccc2c1 [Naphazoline hydrochloride]
- gametocyte viability (concentration: 1 µM): inactive: 82.2
- gametocyte viability (concentration: 10 µM): inactive: 85.6

SMILES: CO[C@@H]1[C@@H](O[C@@H]2O[C@H](C)[C@@H](O[C@H]3C[C@@](C)(O)[C@@H](OC(=O)CC(C)C)[C@H](C)O3)[C@H](N(C)C)[C@H]2O)[C@@H](CC=O)C[C@@H](C)[C@@H](O)/C=C/C=C/C[C@@H](C)OC(=O)C[C@H]1OC(C)=O [Josamycin]
- gametocyte viability (concentration: 1 µM): inactive: 80.1
- gametocyte viability (concentration: 10 µM): inactive: 78.9

SMILES: c1coc(CNc2ncnc3nc[nH]c23)c1 [6-Furfurylaminopurine]
- gametocyte viability (concentration: 1 µM): inactive: 86.5
- gametocyte viability (concentration: 10 µM): inactive: 75.6

SMILES: CC(=O)CC(c1ccccc1)c1c(O)c2ccccc2oc1=O (stereo not drawn) [Warfarin]
- gametocyte viability (concentration: 1 µM): inactive: 95.9
- gametocyte viability (concentration: 10 µM): inactive: 94.7

SMILES: COc1cccc2c1C(=O)c1c(O)c3c(c(O)c1C2=O)C[C@@](O)(C(C)=O)C[C@@H]3O[C@H]1C[C@H](N)[C@H](O)[C@H](C)O1 [Daunorubicin hydrochloride]
- gametocyte viability (concentration: 1 µM): inactive: 69.8
- gametocyte viability (concentration: 10 µM): active: 7.37

SMILES: C=CC1=C(C(=O)O)N2C(=O)[C@@H](NC(=O)/C(=N\O)c3csc(N)n3)[C@H]2SC1 [Cefdinir]
- gametocyte viability (concentration: 1 µM): inactive: 80.8
- gametocyte viability (concentration: 10 µM): inactive: 83.8

SMILES: CC(=O)NS(=O)(=O)c1ccc(N)cc1 [Sulfacetamide sodic hydrate]
- gametocyte viability (concentration: 1 µM): inactive: 85.5
- gametocyte viability (concentration: 10 µM): inactive: 90.3

SMILES: Cc1cn([C@H]2C=C[C@@H](CO)O2)c(=O)[nH]c1=O [Stavudine]
- gametocyte viability (concentration: 1 µM): inactive: 89.9
- gametocyte viability (concentration: 10 µM): inactive: 90

SMILES: CCN(CC)CCNC(C(=O)OCCC(C)C)c1ccccc1 (stereo not drawn) [Camylofine chlorhydrate]
- gametocyte viability (concentration: 1 µM): inactive: 79.9
- gametocyte viability (concentration: 10 µM): inactive: 85.5

SMILES: OCCN(CCO)c1nc(N2CCCCC2)c2nc(N(CCO)CCO)nc(N3CCCCC3)c2n1 [Dipyridamole]
- gametocyte viability (concentration: 1 µM): inactive: 64.1
- gametocyte viability (concentration: 10 µM): active: 41.1

SMILES: CN(c1nccc(=O)[nH]1)C1CCN(c2nc3ccccc3n2Cc2ccc(F)cc2)CC1 [Mizolastine]
- gametocyte viability (concentration: 1 µM): inactive: 94.4
- gametocyte viability (concentration: 10 µM): inactive: 73.8

SMILES: O=C(O)c1ccccc1C(=O)Nc1ccc(S(=O)(=O)Nc2nccs2)cc1 [Phthalylsulfathiazole]
- gametocyte viability (concentration: 1 µM): inactive: 82.3
- gametocyte viability (concentration: 10 µM): inactive: 85.4

SMILES: CN1CCN(C(c2ccccc2)c2ccccc2)CC1 [Cyclizine hydrochloride]
- gametocyte viability (concentration: 1 µM): inactive: 86.8
- gametocyte viability (concentration: 10 µM): inactive: 85.3

SMILES: C#C[C@]1(O)CC[C@H]2[C@@H]3CCC4=CCCC[C@@H]4[C@H]3CC[C@@]21C [Lynestrenol]
- gametocyte viability (concentration: 1 µM): inactive: 86
- gametocyte viability (concentration: 10 µM): inactive: 89.2

SMILES: C[C@H](CCC(=O)O)[C@H]1CC[C@H]2[C@@H]3[C@@H](O)C[C@@H]4C[C@H](O)CC[C@]4(C)[C@H]3CC[C@]12C [Urosiol]
- gametocyte viability (concentration: 1 µM): inactive: 98.8
- gametocyte viability (concentration: 10 µM): inactive: 99.5

SMILES: O=C(CCCN1CCN(c2ccccn2)CC1)c1ccc(F)cc1 [Azaperone]
- gametocyte viability (concentration: 1 µM): inactive: 88.3
- gametocyte viability (concentration: 10 µM): inactive: 91.4

SMILES: NC[C@@H]1O[C@@H](O[C@H]2[C@H](O)[C@@H](O[C@H]3O[C@H](CO)[C@@H](O)[C@H](N)[C@H]3O)[C@H](N)C[C@@H]2N)[C@@H](O)[C@H](O)[C@H]1O [Kanamycin A sulfate]
- gametocyte viability (concentration: 1 µM): inactive: 93.9
- gametocyte viability (concentration: 10 µM): inactive: 94.8

SMILES: CC1CC(OC(=O)c2ccccc2O)CC(C)(C)C1 (stereo not drawn) [Homosalate]
- gametocyte viability (concentration: 1 µM): inactive: 88.1
- gametocyte viability (concentration: 10 µM): inactive: 84

SMILES: COC(=O)C1=C(C#N)NC(C)=C(C(=O)OC(C)C)C1c1cccc([N+](=O)[O-])c1 (stereo not drawn) [Nilvadipine]
- gametocyte viability (concentration: 1 µM): inactive: 83.1
- gametocyte viability (concentration: 10 µM): inactive: 82.2

SMILES: N[C@@H](Cc1cc(I)c(Oc2ccc(O)c(I)c2)c(I)c1)C(=O)O [Liothyronine]
- gametocyte viability (concentration: 1 µM): inactive: 85.9
- gametocyte viability (concentration: 10 µM): inactive: 84.1

SMILES: Nc1c2ccccc2nc2ccccc12 [Aminacrine]
- gametocyte viability (concentration: 1 µM): inactive: 85.8
- gametocyte viability (concentration: 10 µM): inactive: 81.4

SMILES: CN1CCC(=C2c3ccccc3Sc3ccccc32)CC1 [Pimethixene maleate]
- gametocyte viability (concentration: 1 µM): inactive: 90.9
- gametocyte viability (concentration: 10 µM): inactive: 88.8

SMILES: CC1(C)O[C@@H]2C[C@H]3[C@@H]4CCC5=CC(=O)C=C[C@]5(C)[C@H]4[C@@H](O)C[C@]3(C)[C@]2(C(=O)CO)O1 [Desonide]
- gametocyte viability (concentration: 1 µM): inactive: 80
- gametocyte viability (concentration: 10 µM): inactive: 75.7

SMILES: O=C(CCCCCCC(=O)Nc1ccccc1)NO [Vorinostat]
- gametocyte viability (concentration: 1 µM): inactive: 116
- gametocyte viability (concentration: 10 µM): inactive: 73.5

SMILES: CC[C@H]1OC(=O)C[C@@H](O)[C@H](C)[C@@H](O[C@@H]2O[C@H](C)[C@@H](O[C@H]3C[C@@](C)(O)[C@@H](O)[C@H](C)O3)[C@H](N(C)C)[C@H]2O)[C@@H](CC=O)C[C@@H](C)C(=O)/C=C/C(C)=C/[C@@H]1CO[C@@H]1O[C@H](C)[C@@H](O)[C@@H](OC)[C@H]1OC [Tylosin]
- gametocyte viability (concentration: 1 µM): inactive: 93.3
- gametocyte viability (concentration: 10 µM): inactive: 91.7

SMILES: C[C@]12C[C@H](O)[C@H]3[C@@H](CCC4=CC(=O)CC[C@@]43C)[C@@H]1CC[C@@H]2C(=O)CO [Corticosterone]
- gametocyte viability (concentration: 1 µM): inactive: 93.8
- gametocyte viability (concentration: 10 µM): inactive: 90.4

SMILES: COC(=O)C1=C(C)NC(C)=C(C(=O)OC2CCCN(Cc3ccccc3)C2)C1c1cccc([N+](=O)[O-])c1 (stereo not drawn) [Benidipine hydrochloride]
- gametocyte viability (concentration: 1 µM): inactive: 79.4
- gametocyte viability (concentration: 10 µM): inactive: 70.7

SMILES: Nc1c2c(nc3ccccc13)CCCC2 [Tacrine hydrochloride]
- gametocyte viability (concentration: 1 µM): inactive: 82.3
- gametocyte viability (concentration: 10 µM): inactive: 79.9

SMILES: CCN(CC)C(=S)SSC(=S)N(CC)CC [Disulfiram]
- gametocyte viability (concentration: 1 µM): inactive: 91.9
- gametocyte viability (concentration: 10 µM): inactive: 55.8

SMILES: C/C(=C(\CCOP(=O)(O)O)SC(=O)c1ccccc1)N(C=O)Cc1cnc(C)nc1N [Benfotiamine]
- gametocyte viability (concentration: 1 µM): inactive: 90.6
- gametocyte viability (concentration: 10 µM): inactive: 96

SMILES: C[C@H](N)[C@H](O)c1cccc(O)c1 [Metaraminol bitartrate]
- gametocyte viability (concentration: 1 µM): inactive: 88.5
- gametocyte viability (concentration: 10 µM): inactive: 87

SMILES: CCN(CC)CCOC(=O)C(Cc1cccc2ccccc12)CC1CCCO1 (stereo not drawn) [Nafronyl oxalate]
- gametocyte viability (concentration: 1 µM): inactive: 99.3
- gametocyte viability (concentration: 10 µM): inactive: 90.6

SMILES: O=C1CN(/N=C/c2ccc([N+](=O)[O-])o2)C(=O)N1 [Nitrofurantoin]
- gametocyte viability (concentration: 1 µM): inactive: 83.4
- gametocyte viability (concentration: 10 µM): inactive: 82.5

SMILES: Cc1ccccc1OCC(O)CO (stereo not drawn) [Mephenesin]
- gametocyte viability (concentration: 1 µM): inactive: 97.9
- gametocyte viability (concentration: 10 µM): inactive: 91.8

SMILES: CC1(C)S[C@@H]2[C@H](NC(=O)[C@H](C(=O)O)c3ccsc3)C(=O)N2[C@H]1C(=O)O [Ticarcillin sodium]
- gametocyte viability (concentration: 1 µM): inactive: 81.2
- gametocyte viability (concentration: 10 µM): inactive: 80

SMILES: Cc1cc(NS(=O)(=O)c2ccc(N)cc2)no1 [Sulfamethoxazole]
- gametocyte viability (concentration: 1 µM): inactive: 82.4
- gametocyte viability (concentration: 10 µM): inactive: 81.5

SMILES: CN[C@@H]1[C@@H](O)[C@@H](O[C@@H]2[C@@H](O)[C@H](O[C@H]3OC(CN)=CC[C@H]3N)[C@@H](N)C[C@H]2N)OC[C@]1(C)O [Sisomicin sulfate]
- gametocyte viability (concentration: 1 µM): inactive: 88.2
- gametocyte viability (concentration: 10 µM): inactive: 87.3

SMILES: O=C1CN(/N=C/c2ccc(-c3ccc([N+](=O)[O-])cc3)o2)C(=O)N1 [Dantrolene sodium salt]
- gametocyte viability (concentration: 1 µM): inactive: 91.7
- gametocyte viability (concentration: 10 µM): inactive: 103

SMILES: CCOC(=O)n1ccn(C)c1=S [Carbimazole]
- gametocyte viability (concentration: 1 µM): inactive: 78.6
- gametocyte viability (concentration: 10 µM): inactive: 84.9

SMILES: CCCC1O[C@@H]2C[C@H]3[C@@H]4CCC5=CC(=O)C=C[C@]5(C)[C@H]4[C@@H](O)C[C@]3(C)[C@]2(C(=O)CO)O1 (stereo partly drawn) [Budesonide]
- gametocyte viability (concentration: 1 µM): inactive: 85.4
- gametocyte viability (concentration: 10 µM): inactive: 84.4

SMILES: CC(C(=O)O)c1cccc(C(=O)c2ccccc2)c1 (stereo not drawn) [Ketoprofen]
- gametocyte viability (concentration: 1 µM): inactive: 86.2
- gametocyte viability (concentration: 10 µM): inactive: 87.1

SMILES: CCOC(=O)C1=C(C)NC(C)=C(C(=O)OCC)C1c1ccccc1/C=C/C(=O)OC(C)(C)C [Lacidipine]
- gametocyte viability (concentration: 1 µM): inactive: 97.1
- gametocyte viability (concentration: 10 µM): inactive: 96.5

SMILES: CCOc1cc(CC(=O)N[C@@H](CC(C)C)c2ccccc2N2CCCCC2)ccc1C(=O)O [Repaglinide]
- gametocyte viability (concentration: 1 µM): inactive: 83
- gametocyte viability (concentration: 10 µM): inactive: 84.7

SMILES: C#C[C@]1(O)CC[C@H]2[C@@H]3CCc4cc(O)ccc4[C@H]3CC[C@@]21C [Ethinylestradiol]
- gametocyte viability (concentration: 1 µM): inactive: 91.5
- gametocyte viability (concentration: 10 µM): inactive: 68.6
